{"source": "PubChem BioAssay AID1508642", "about": "(National Center for Advancing Translational Sciences (NCATS), 2021)", "note": "Out of some 43,000 compounds screened, about 200 (0.47%) were called active. The shares of active, inactive and inconclusive entries below differ from those in the screen. Calls come from the whole dose curve; as a rule, active = well fitted cell-killing curve with a large enough effect; inconclusive = small, poorly fitted or top-dose-only effect, or effect the other way; inactive = flat fitted curve, though single readings scatter. A potency beside an inconclusive call is a rough fit, not a confirmed value. Potency is the fitted concentration of half-maximal effect; tags give direction and shape of the fitted curve.", "data": [{"test": "Cell viability qHTS assay in S16 Pmp22-F2sN cells; note: nearly all actives have a fitted effect of over 65% in size", "details": "S16 Pmp22-F2sN Schwann cells (luciferase reporters placed in the Pmp22 gene) viability, CellTiter-Glo, 24 h; series mostly up to 57.5 µM", "outline": "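Seed 500-1,000 S16 Pmp22-F2sN cells per well in phenol-red-free DMEM with 10% heat-inactivated FBS; pin-add 23 nL compound; incubate 24 h at 37C; add CellTiter-Glo, wait 15 min protected from light; read luminescence.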", "values": [{"smiles": "O=C(NCC1CCN(Cc2ccccc2Cl)CC1)c1cc2ccc3cccnc3c2[nH]1", "Potency": "inconclusive: 39.8 µM [cytotoxic, single point]"}, {"smiles": "Cc1c(NC(=O)c2ccc(Cl)cc2)cc(C(C)C)c(O)c1S(=O)(=O)c1ccccc1", "Potency": "inconclusive: 28.2 µM [cytotoxic, single point]"}, {"smiles": "CCc1ccc(NC(=O)c2ccc3c(O)c(S(=O)(=O)c4ccccc4)c(=O)[nH]c3c2)cc1", "Potency": "inactive"}, {"smiles": "CCOc1ccc(C(=O)N2CCC(c3ccncc3)CC2)cc1", "Potency": "inconclusive: 0.224 µM [cytotoxic, full curve, poor fit]"}, {"smiles": "CC1CCCCN1c1nc(-c2ccc(C(C)(C)C)cc2)nc2ccccc12", "note": "(stereo unspecified)", "Potency": "inactive"}, {"smiles": "CC(C)c1ccc2occ(CC(=O)Nc3cccc(C(F)(F)F)c3)c2c1", "Potency": "inconclusive: 39.8 µM [cytotoxic, single point]"}, {"smiles": "CCC1CN(C(=O)N2CCC(C(=O)NCc3ccco3)CC2)c2cc(C)ccc2O1", "note": "(stereo unspecified)", "Potency": "inconclusive: 35.5 µM [cytotoxic, single point]"}, {"smiles": "CCOc1ccc(CNCc2c(C(=O)O)n(Cc3ccc(OC)cc3)c3ccccc23)cc1", "Potency": "inconclusive: 39.8 µM [cytotoxic, single point]"}, {"smiles": "COc1ccc(-c2nc3c(C#N)c[nH]n3c2NC2CCCC2)cc1", "Potency": "active: 22.4 µM"}, {"smiles": "CC(NC(=O)c1ccc(Cn2c(=O)c3cccn3c3cccnc32)cc1)c1ccccc1", "note": "(stereo unspecified)", "Potency": "inactive"}, {"smiles": "Cc1ccc(C)c(Nc2nc3c(S(=O)(=O)c4ccc(Br)cc4)nnn3c3ccsc23)c1", "Potency": "inconclusive: 25.1 µM [cytotoxic, single point]"}, {"smiles": "CCc1ccccc1NC(=O)N1CCc2cc(OC)c(OC)cc2C1CC(=O)OC", "note": "(stereo unspecified)", "Potency": "inconclusive: 3.55 µM [rising, partial curve, poor fit]"}, {"smiles": "Cc1ccc(Nc2c(-c3ccc(C)cc3)nc3ccc(C)cn23)cc1", "Potency": "inconclusive: 17.8 µM [cytotoxic, partial curve, poor fit]"}, {"smiles": "O=C(c1ccc2c(c1)CCCC2)N1CCN(c2nc3ccc(F)cc3s2)CC1", "Potency": "inconclusive: 31.6 µM [cytotoxic, single point]"}, {"smiles": "COc1cccc(-n2c(-c3ccco3)nc3c(cnn3-c3ccc(Cl)cc3)c2=O)c1", "Potency": "inconclusive: 2.82 µM [rising, single point]"}, {"smiles": "COc1ccc(CC(=O)Nc2cc(-c3nc4cccnc4s3)ccc2C)cc1", "Potency": "inconclusive: 39.8 µM [cytotoxic, single point]"}, {"smiles": "CCC(=O)Nc1ccc2nc(SCc3ccccc3)sc2c1", "Potency": "inconclusive: 39.8 µM [cytotoxic, single point]"}, {"smiles": "CCn1c(=O)c2cc(C(=O)NCCCN(C)Cc3ccccc3)sc2c2ccccc21", "Potency": "inconclusive: 39.8 µM [cytotoxic, single point]"}, {"smiles": "COc1ccccc1CNC(=O)CCC1N=C2c3ccccc3N=C(SCc3ccccc3Cl)N2C1=O", "note": "(stereo unspecified)", "Potency": "inconclusive: 14.1 µM [cytotoxic, partial curve]"}, {"smiles": "COc1ccc2cc(C(=O)NCc3ccc4c(c3)CCN4C(=O)c3ccc(C)cc3)[nH]c2c1", "Potency": "inactive"}, {"smiles": "COC(=O)c1ccc2c(=O)n(CCCCCC(=O)N3CCN(c4cc(Cl)ccc4C)CC3)c(=O)[nH]c2c1", "Potency": "inconclusive: 31.6 µM [cytotoxic, single point]"}, {"smiles": "COc1ccccc1Nc1c2c(nc3ccc(NC(=O)c4cccc(OC)c4OC)cc13)CCCC2", "Potency": "inconclusive: 35.5 µM [cytotoxic, single point]"}, {"smiles": "O=C(Nc1cccc(C(=O)N2CCN(c3ccccc3F)CC2)c1)c1nsc2ccccc12", "Potency": "inconclusive: 35.5 µM [cytotoxic, single point]"}, {"smiles": "CCCc1ccc(OCC(=O)Nc2sc3c(c2C(=O)OC)CCCCC3)cc1", "Potency": "inactive"}, {"smiles": "COc1ccc(CNC(=O)C(C)N2Cc3ccccc3C2=O)cc1", "note": "(stereo unspecified)", "Potency": "inconclusive: 22.4 µM [rising, partial curve, poor fit]"}, {"smiles": "CCn1ccc2cc(S(=O)(=O)N3CCCN(C(=O)Nc4ccc(C)c(F)c4)CC3)ccc21", "Potency": "inconclusive: 39.8 µM [cytotoxic, single point]"}, {"smiles": "Cc1cccc(-n2ccnc2SCC(=O)Nc2nc3ccccc3s2)c1", "Potency": "inactive"}, {"smiles": "CCc1c(C)sc(NC(=O)C2c3ccccc3Oc3ccccc32)c1C(=O)OC(C)C", "Potency": "inactive"}, {"smiles": "COc1cccc(C2c3c(-c4ccccc4O)n[nH]c3C(=O)N2CCc2ccc(OC)c(OC)c2)c1", "note": "(stereo unspecified)", "Potency": "inconclusive: 39.8 µM [cytotoxic, single point]"}, {"smiles": "O=C(CSc1ncc(CO)n1Cc1ccccc1)Nc1ccc(C(F)(F)F)cc1", "Potency": "inconclusive: 20 µM [cytotoxic, partial curve, poor fit]"}, {"smiles": "CCc1ccc(-c2nc(-c3cc4ccccc4oc3=O)sc2C)cc1", "Potency": "inconclusive: 25.1 µM [rising, single point]"}, {"smiles": "CSc1ccc(CCNC(=O)CCc2c(C)nc3cc(-c4ccccc4)nn3c2C)cc1", "Potency": "inactive"}, {"smiles": "CCOC(=O)c1c(NC(=O)c2ccc(S(=O)(=O)N3CCCC(C)C3)cc2)sc2c1CCN(C(C)C)C2", "note": "(stereo unspecified)", "Potency": "inconclusive: 39.8 µM [cytotoxic, single point]"}, {"smiles": "Cc1ccc2oc3c(c(=O)c2c1)C(c1cccc(O)c1)N(Cc1ccccc1Cl)C3=O", "note": "(stereo unspecified)", "Potency": "inconclusive: 35.5 µM [cytotoxic, single point]"}, {"smiles": "Cc1c2cnn(-c3ccccc3)c(=O)c2c(C)n1C(C)C(=O)Nc1ccc(Br)cc1F", "note": "(stereo unspecified)", "Potency": "inactive"}, {"smiles": "CC(C)c1ccc2oc(-c3cccc(NC(=O)c4ccc5c(c4)OCCO5)c3)nc2c1", "Potency": "inconclusive: 39.8 µM [cytotoxic, single point]"}, {"smiles": "COc1ccc(Cl)cc1NC(=O)CSc1nc(=O)[nH]c2c1CCC2", "Potency": "inconclusive: 8.91 µM [cytotoxic, full curve, poor fit]"}, {"smiles": "Cc1ccccc1OCC(=O)Nc1ccccc1C(=O)OCc1cc(=O)n2nc(C3CC3)sc2n1", "Potency": "inactive"}, {"smiles": "COC(=O)c1cc(NC(=O)Cn2ncc3c([nH]c4ccccc43)c2=O)cc(C(=O)OC)c1", "Potency": "inactive"}, {"smiles": "O=C(O)c1ccc2c(c1)N(Cc1ccc(F)cc1)C(=O)c1ccccc1S2=O", "note": "(stereo unspecified)", "Potency": "inconclusive: 3.16 µM [cytotoxic, partial curve, poor fit]"}, {"smiles": "CCC(=O)Nc1ccc(-c2nc3ncccc3o2)cc1C", "Potency": "inactive"}, {"smiles": "CCC(=O)N1CCc2cc(S(=O)(=O)NCCC(=O)Nc3ccc(C)cc3C)ccc21", "Potency": "inconclusive: 39.8 µM [cytotoxic, single point]"}, {"smiles": "Cc1ccc2ncc(C(=O)c3ccc(C)c(C)c3)c(S(=O)(=O)c3ccccc3)c2c1", "Potency": "inconclusive: 39.8 µM [cytotoxic, single point]"}, {"smiles": "CCc1ccc(S(=O)(=O)c2nnn3c2nc(N2CCC(C(N)=O)CC2)c2cc(Cl)ccc23)cc1", "Potency": "inconclusive: 22.4 µM [cytotoxic, single point]"}, {"smiles": "COc1ccc(NC(=O)c2c(NCc3cccs3)sc3c2CCCCC3)c(OC)c1", "Potency": "inconclusive: 28.2 µM [cytotoxic, single point]"}, {"smiles": "O=S(=O)(c1ccc(OC(F)(F)F)cc1)N1CCC(c2nc3ccccc3s2)CC1", "Potency": "inactive"}, {"smiles": "CNC(=O)c1ccc2nc(Cc3ccccc3)oc2c1", "Potency": "inconclusive: 31.6 µM [cytotoxic, single point]"}, {"smiles": "Cc1ccc(CNC(=O)c2c[nH]n3c(=O)c(Cc4ccc(F)cc4Cl)c(C)nc23)cc1", "Potency": "inconclusive: 28.2 µM [cytotoxic, single point]"}, {"smiles": "COc1ccc(Nc2c3c(nc4ccc(NC(=O)c5cc(Cl)ccc5OC)cc24)CCCC3)cc1OC", "Potency": "inconclusive: 39.8 µM [cytotoxic, single point]"}, {"smiles": "COc1ccccc1CNC(=O)c1ccc(CS(=O)c2ccccc2Cl)o1", "note": "(stereo unspecified)", "Potency": "inactive"}, {"smiles": "COc1ccc(NC(=O)c2sc3nc4c(c(-c5ccc(OC)cc5)c3c2N)C(=O)CC(C)(C)C4)cc1", "Potency": "inconclusive: 1.78 µM [cytotoxic, partial curve, poor fit]"}, {"smiles": "Cc1ccc(-c2nnc(Nc3ccc(F)cc3)c3ccccc23)cc1S(=O)(=O)N1CCN(C)CC1", "Potency": "inconclusive: 39.8 µM [cytotoxic, single point]"}, {"smiles": "COc1ccc(OC)c(CCNC(=O)c2cnn(-c3ccc(C)cc3C)c2C2CCN(C(=O)OC(C)(C)C)CC2)c1", "Potency": "inconclusive: 39.8 µM [cytotoxic, single point]"}, {"smiles": "CCOc1ccc(-c2nnc(SCC(=O)Nc3ccc(C)cc3Cl)o2)cc1", "Potency": "inconclusive: 0.0158 µM [cytotoxic, full curve, poor fit]"}, {"smiles": "CCOc1ccc(S(=O)(=O)N(CC(=O)NCCSc2ccc(C)cc2)c2ccccc2)cc1", "Potency": "inconclusive: 22.4 µM [rising, partial curve, poor fit]"}, {"smiles": "CCCCNC(=O)C1CCN(c2nc3ccccc3nc2C(F)(F)F)CC1", "Potency": "inconclusive: 39.8 µM [cytotoxic, single point]"}, {"smiles": "Cc1ccc(Cl)cc1N1CCN(c2ncnc3c2nc2n3CCCCC2)CC1", "Potency": "inconclusive: 20 µM [rising, partial curve, poor fit]"}, {"smiles": "COc1ccccc1N1CCN(C(CNC(=O)C(=O)NCc2ccc(F)cc2)c2cccnc2)CC1", "note": "(stereo unspecified)", "Potency": "inconclusive: 10 µM [cytotoxic, partial curve, poor fit]"}, {"smiles": "Cc1cc(C)cc(NC(=O)CSc2oc(-c3ccco3)nc2S(=O)(=O)c2ccc(Cl)cc2)c1", "Potency": "inconclusive: 39.8 µM [cytotoxic, single point]"}, {"smiles": "CCOc1ccc(N(CC)C(=O)c2nn(-c3ccc(OC)cc3)c(=O)c3c2c2ccccc2n3C)cc1", "Potency": "inconclusive: 2.24 µM [cytotoxic, full curve, poor fit]"}, {"smiles": "CC(=O)c1ccc(NC(=O)c2nc(-c3ccccc3)n(-c3ccccc3)n2)cc1", "Potency": "inactive"}]}]}
